# Over roughly 1,100 sequences, “thermal melting temperature (Tm) of peptide-HLA complex” has its median near 58; the lowest 2% begin near 42. This is one part of the list.
# B1: unnamed (peptide)
# chain: ALDEVFTKV
# B2: unnamed (peptide)
# chain: FLANIGTSV
# B3: unnamed (peptide)
# chain: VLGPKIEAV
# B4: unnamed (peptide)
# chain: RLLPPGAVVAV
# B5: unnamed (peptide)
# chain: ALLDGRLQV
# B6: unnamed (peptide)
# chain: YLPYPIHQV
# B7: unnamed (peptide)
# chain: KIVDFSYSV
# B8: unnamed (peptide)
# chain: FQHTGIYSV
# B9: unnamed (peptide)
# chain: KLFDTQQFL
# B10: unnamed (peptide)
# chain: VLQEKVPEI
# B11: unnamed (peptide)
# chain: NLDFNPPHV
# B12: unnamed (peptide)
# chain: SLNGLEVHL
# B13: unnamed (peptide)
# chain: IQDDMQTLYV
# B14: unnamed (peptide)
# chain: TLAEIAKVEL
# B15: unnamed (peptide)
# chain: FLPPEHTIVYI
# B16: unnamed (peptide)
# chain: RLAQEGIYTL
# B17: unnamed (peptide)
# chain: RLLEVPVML
# B18: unnamed (peptide)
# chain: HLTDITLKV
# B19: unnamed (peptide)
# chain: FLFQEPRSI
# B20: unnamed (peptide)
# chain: TLFPKDVQL
# B21: unnamed (peptide)
# chain: NLIPILKTV
# B22: unnamed (peptide)
# chain: LLRDGIELV
# B23: unnamed (peptide)
# chain: GLLAGDRLVEV
# B24: unnamed (peptide)
# chain: ALKPDLVNV
# B25: unnamed (peptide)
# chain: RLQETEGMVAV
# B26: unnamed (peptide)
# chain: ALADFAELLRA
# B27: unnamed (peptide)
# chain: FLRNINEYL
# B28: unnamed (peptide)
# chain: HLLEEPIYL
# B29: unnamed (peptide)
# chain: SLIDGYYRL
# B30: unnamed (peptide)
# chain: SLDDLLTNV
# B31: unnamed (peptide)
# chain: KLKPGDLVGV
# B32: unnamed (peptide)
# chain: AMLTVLHEI
# B33: unnamed (peptide)
# chain: FLSNDTVQL
# B34: unnamed (peptide)
# chain: ALMPVLNQV
# B35: unnamed (peptide)
# chain: RLIPTLVSI
# B36: unnamed (peptide)
# chain: ALLKIEGVYA
# Target: HLA-A*02:01
# Assay: thermal melting temperature (Tm) of peptide-HLA complex; higher = more thermostable pHLA complex
# Settings: C1R-A*02:01
# 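Also: cell lysates heated 10 min at 37–73 °C, remaining pHLA pulled down with pan-class I antibody, peptides quantified by DIA-MS versus 37 °C, Tm where half the complex is lost.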
row,Sequence,thermal melting temperature [°C]
1,B1,56.5
2,B2,62.2
3,B3,55.5
4,B4,62.9
5,B5,60.7
6,B6,57.7
7,B7,61.7
8,B8,56.6
9,B9,60.1
10,B10,58.4
11,B11,50.1
12,B12,56.6
13,B13,43.4
14,B14,57.9
15,B15,56
16,B16,53.4
17,B17,58.8
18,B18,57.8

row,Sequence,thermal melting temperature [°C]
1,B19,61.2
2,B20,57.1
3,B21,56
4,B22,57.8
5,B23,63.6
6,B24,59.1
7,B25,55.6
8,B26,62
9,B27,62.3
10,B28,63
11,B29,61.3
12,B30,54.9
13,B31,44.4
14,B32,61.6
15,B33,57.4
16,B34,58.7
17,B35,47.4
18,B36,59.4

# Source: the supplement of paper PMC7726561
